# Measurements taken from PubChem BioAssay (NCATS).
# Inconclusive means that the source gave no clear call. Such entries were picked first, then a sample of the others. Potencies of inconclusive entries are doubtful fits and often do not repeat. Calls of active or inactive are those of the source. Calls come from the whole dose curve; as a rule, active = well fitted activation curve with a large enough effect; inconclusive = small, poorly fitted or top-dose-only effect; inactive = no such curve, though single readings can be large or run the other way.
# Target: Cellular tumor antigen p53 (Homo sapiens) (UniProt P04637)
# Chain of UniProt P04637 (P04637 whole entry, looked up): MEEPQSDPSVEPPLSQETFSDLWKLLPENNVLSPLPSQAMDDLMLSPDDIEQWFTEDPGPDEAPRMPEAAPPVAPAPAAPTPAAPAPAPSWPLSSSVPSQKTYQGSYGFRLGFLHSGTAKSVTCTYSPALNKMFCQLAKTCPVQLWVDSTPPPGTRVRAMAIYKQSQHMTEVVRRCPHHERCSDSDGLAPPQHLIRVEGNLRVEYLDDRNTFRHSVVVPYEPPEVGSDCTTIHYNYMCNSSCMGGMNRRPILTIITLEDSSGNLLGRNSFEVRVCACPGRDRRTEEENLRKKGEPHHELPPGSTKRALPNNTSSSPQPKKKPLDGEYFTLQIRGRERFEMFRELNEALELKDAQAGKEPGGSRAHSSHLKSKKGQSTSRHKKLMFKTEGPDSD
# Assay: Primary qHTS for small molecule compounds that upregulate eGFP-tagged delta133p53alpha (in N-terminal) cells. (AID 2060322);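 note: cells pre-induced with doxycycline then dosed without doxycycline; nearly all actives have a fitted effect of over 75% in size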;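 for activation: series mostly up to about 56 µM; 0% = DMSO vehicle and 100% = reference activator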
# Conditions: NCI-H358 eGFP-delta133p53alpha fluorescence, 24 h; activation: hits give high values
# Procedure, shortened: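 NCI-H358 cells pre-induced 24 h with 10 ng/ml doxycycline for eGFP-delta133p53alpha, plated dox-free and exposed 24 h at 37C to titrated compounds. Fixed, Hoechst-stained; gated GFP peak intensity by laser scanning cytometry, normalized to DMSO (0%) and 57.5 uM 5-azacytidine (100%).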
# Potency is the fitted concentration of half-maximal effect; tags give direction and shape of the fitted curve.
SMILES,activation,Potency
CC(C)OC(=O)CCCC=CC[C@@H]1[C@H](C=C[C@@H](O)COc2cccc(C(F)(F)F)c2)[C@H](O)C[C@@H]1O,inactive: -7.59%,–
CCN(CC)CCNC(=O)COc1ccc(OC)cc1,–,"inconclusive: 1.55 µM [activator, partial curve]"
O=C(Oc1cccc2cccnc12)c1ccccc1,–,"inconclusive: 38.9 µM [activator, single point]"
COC(=O)[C@H]1[C@H]2C[C@@H]3c4[nH]c5cc(OC)ccc5c4CCN3C[C@H]2C[C@@H](OC(=O)COc2ccc(OC)cc2)[C@@H]1OC,–,"inconclusive: 15.5 µM [activator, partial curve, poor fit]"
CC1(C)CC(=O)C2=C(C1)NC(=S)NC2c1cccc(O)c1 (configuration not stated),–,"inconclusive: 0.953 µM [activator, full curve, poor fit]"
COC(C(=O)N1Cc2[nH]nc(NC(=O)c3ccc(N4CCN(C)CC4)cc3)c2C1)c1ccccc1 (configuration not stated),–,active: 23.9 µM
OCC(CO)(CO)NCC(O)Cn1c2ccc(Cl)cc2c2cc(Cl)ccc21 (configuration not stated),–,active: 23.9 µM
